# Source: PubChem BioAssay AID1347417 (National Center for Advancing Translational Sciences (NCATS), 2020)
# Hit rate of the full screen: of about 120,000 compounds, about 5,300 (4.4%) were called active. The shares of active, inactive and inconclusive entries below differ from those in the screen. Calls come from the whole dose curve; as a rule, active = well fitted inhibition curve with a large enough effect; inconclusive = small, poorly fitted or top-dose-only effect; inactive = no such curve, though single readings can be large or run the other way. Potencies beside an inconclusive call are fits to weak or partial responses and may not hold up.
# Experiment: qHTS Primary assay for Inhibitors of Plasmodium falciparum Dd2 growth in vitro; note: nearly all actives have a fitted effect of over 65% in size;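 for activity, negative = inhibition: plate controls were DMSO vehicle for no effect and reference drug for full effect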
# Conditions: P. falciparum Dd2 growth, SYBR Green, 72 h; activity, negative = inhibition: at 28.9 µM (top of the series) unless noted; series mostly up to 28.9 µM
# Method in brief: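 Infected erythrocytes (Dd2, 0.3% parasitemia, 2.5% hematocrit final) are added to compound in RPMI-1640/Albumax II medium, grown 72 h at 37C in low oxygen, then lysed with saponin/Triton-X containing SYBR Green and read by fluorescence.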
# Potency is the fitted concentration of half-maximal effect; tags give direction and shape of the fitted curve.
Structure (SMILES),Potency,"activity, negative = inhibition",outcome
CCC1CCc2c(sc(NC(=O)C3c4ccccc4Oc4ccccc43)c2C(=O)OC)C1 (stereo unspecified),active: 12.6 µM,,
C#C[C@H]1CN2CC[C@H]1C[C@@H]2CNS(=O)(=O)c1ccc(Cl)cc1,active: 5.01 µM,,
CCOC(=O)N1CCC(NC(=O)c2ccc3c(c2)N(Cc2ccc(Cl)cc2)C(=O)c2ccccc2S3(=O)=O)CC1,"inconclusive: 3.98 µM [inhibitor, single point]",,
COc1ccccc1NC(=O)Cn1c(-c2ccc(F)cc2)nc(C)cc1=O,"inconclusive: 17.8 µM [inhibitor, single point]",,
CCOc1ccc(Cn2c(CNS(=O)(=O)c3ccc(CC)cc3)nc3cccnc32)cc1,"inconclusive: 10 µM [inhibitor, single point]",,
N#Cc1cccc(CN2CCC3(CC2)COCCN3C(=O)OCc2ccccc2)c1,"inconclusive: 7.94 µM [inhibitor, partial curve]",,
CCCn1cc(S(=O)(=O)c2ccc(CC)cc2)c(=O)c2cc(F)c(N3CCN(C)CC3)cc21,active: 7.08 µM,,
O=C(NC[C@H]1OC[C@@H](NCc2cnc[nH]2)[C@@H]1O)c1ccncc1,,inactive: 11.8% [at 44.1 µM],
Cn1nc(-c2nncn2CC2CC2)c2c1CCN(C(=O)c1nn(C)c3ccccc13)C2,"inconclusive: 2 µM [inhibitor, partial curve]",,
Cc1ccc(NC(=O)c2ccc(N(Cc3ccccc3)S(C)(=O)=O)cc2)cc1,active: 6.31 µM,,
CN(C)C[C@@H]1CN(c2ccncn2)C[C@H]1NC(=O)Cc1c(F)cccc1Cl,,inactive: -13%,
O=C(Nc1nc2c(s1)CCCC2)c1ccccc1F,"inconclusive: 2.51 µM [inhibitor, full curve]",,
CC(C)c1ccc(C2=NC(c3ccncc3)=Nc3ccc(F)cc3N2)cc1,"inconclusive: 17.8 µM [inhibitor, single point]",,
CN(C)c1cccc(C(=O)N2CCCC(n3cc(-c4nc(C5CC5)no4)nn3)C2)c1 (stereo unspecified),"inconclusive: 8.91 µM [inhibitor, single point]",,
CN(C)c1ccc(C(=O)N2CC[C@H]3NC(=O)N(c4ccc(Oc5ccccc5)cc4)C(=O)[C@H]32)cc1,,,inactive
CCOC(=O)c1ccc(N2C(=O)c3n[nH]c(-c4cccs4)c3C2c2ccc(OC)cc2OC)cc1 (stereo unspecified),active: 11.2 µM,,
COc1ccc2c(c1)CC(C(=O)Nc1ccc(OC)cc1OC)CO2 (stereo unspecified),"inconclusive: 6.31 µM [inhibitor, partial curve, poor fit]",,
O=C(NC1CCCCCC1)c1ccc2c(c1)CC(=O)N2Cc1cccc(F)c1,,inactive: -19.4%,
CO[C@H]1[C@H](NC(=O)CCc2cccnc2)c2ccccc2C12CCNCC2,,inactive: -25.6%,
Cc1noc(C)c1-c1cc2c(cc(C)n2CCN(C)C)c(Nc2ccncn2)n1,"inconclusive: 5.62 µM [inhibitor, single point]",,
CN(C)c1ccc(C(=O)NC2CC(c3nnc(CO)n3C3CC3)C2)cn1 (stereo unspecified),"inconclusive: 7.08 µM [inhibitor, partial curve, poor fit]",,
Cc1cc(C(F)(F)F)nc(CNc2cc(C3CC(O)C3)nc(N)n2)n1 (stereo unspecified),,inactive: -19.7%,

Structure (SMILES),Potency,"activity, negative = inhibition",outcome
COc1ccc([C@@H]2CN(C(=O)Cc3nonc3C)[C@@H]3C4CCN(CC4)[C@@H]32)cc1,"inconclusive: 14.1 µM [inhibitor, single point]",,
COc1ccc(NC(=O)c2c(NCc3cccs3)sc3c2CCCCC3)c(OC)c1,"inconclusive: 17.8 µM [inhibitor, single point]",,
Cc1nn(C)c(C)c1S(=O)(=O)NCCc1noc(-c2cccnc2)n1,"inconclusive: 7.94 µM [inhibitor, partial curve]",,
COc1ccc(Nc2c3c(nc4ccc(NC(=O)c5cc(Cl)ccc5OC)cc24)CCCC3)cc1OC,"inconclusive: 3.98 µM [inhibitor, single point]",,
COc1ccccc1-c1nc2cnccn2c1NCCC(=O)Nc1ccc2c(c1)OCO2,,,inactive
COc1ccc(OC)c(CNC(=O)C2CCN(S(=O)(=O)c3ccc4[nH]c(=O)oc4c3)CC2)c1,"inconclusive: 11.2 µM [inhibitor, partial curve, poor fit]",,
CC1CCN(c2ccc(-c3cccc(NC(=O)NC(C)C)c3)nn2)CC1,"inconclusive: 17.8 µM [inhibitor, single point]",,
Cc1cccc(CNC(=O)C2CCc3sc(C(=O)N4CCOCC4)cc3C2)c1 (stereo unspecified),"inconclusive: 10 µM [inhibitor, partial curve, poor fit]",,
CC(C)Oc1ccc(CNC(=O)c2cccc(NC(=O)c3nsc4ccccc34)c2)cc1,"inconclusive: 17.8 µM [inhibitor, single point]",,
c1cncc(C(CNc2ncncn2)N2CCOCC2)c1 (stereo unspecified),,inactive: 5.32%,
CCc1cnc(N)nc1N1CCN(c2cnccn2)CC1,,inactive: -14%,
O=C(Cn1nc2c(cc1=O)CCCCC2)N1CCN(Cc2ccccc2)CC1,,inactive: 4.76%,
COc1ccc(NC(=O)C(=O)NCc2ccco2)c(OC)c1,"inconclusive: 17.8 µM [inhibitor, single point]",,
CCN(CC)C(=O)CCc1c(C)nn(-c2cccc(C)c2)c1Oc1ccc(F)cc1F,,,inactive
Cc1noc2ncnc(NCc3ccc(Cl)cc3)c12,"inconclusive: 11.2 µM [inhibitor, single point]",,
CCN1C(=O)C2CC3(CCN(Cc4cn[nH]c4-c4cccs4)CC3)CN2C1=O (stereo unspecified),"inconclusive: 17.8 µM [inhibitor, single point]",,
COc1ccc(-c2cc([C@H]3CN4CC[C@H]3C[C@@H]4CNS(=O)(=O)c3ccccc3)n(C)n2)cc1OC,"inconclusive: 3.98 µM [inhibitor, single point]",,
CCN1C2CCC1CN(C(=O)c1ccncc1)C2,,inconclusive: -52.2% [inhibitor] [at 44.1 µM],
Cn1c(C(=O)N2CCC(C(=O)N3CCN(c4ccccc4)CC3)CC2)cc2sccc21,,inconclusive: -182% [inhibitor] [at 5.79 µM],
Cc1nnc(N2CCN(c3cccc(C(F)(F)F)c3)CC2)c2c1nnn2Cc1ccccc1,"inconclusive: 12.6 µM [inhibitor, single point]",,
COc1cccc(NC(=O)CSC2=Nc3ccccc3C3=NC(CC(=O)NCc4ccccc4OC)C(=O)N23)c1 (stereo unspecified),"inconclusive: 8.91 µM [inhibitor, partial curve, poor fit]",,
CCCCNC(=O)CCSc1nc(-c2ccc3c(c2)OCO3)cc(C(F)(F)F)n1,"inconclusive: 1.12 µM [inhibitor, partial curve, poor fit]",,

Structure (SMILES),Potency,"activity, negative = inhibition",outcome
CN1CCCCC1COc1ccc2c(n1)CN(Cc1ccccc1F)C(=O)CO2 (stereo unspecified),"inconclusive: 1.78 µM [inhibitor, full curve, poor fit]",,
CCN(CC)C[C@H]1O[C@H](Cc2cc(-c3ccccc3)on2)CC[C@@H]1O,"inconclusive: 5.62 µM [inhibitor, partial curve, poor fit]",,
Cc1ccc(-n2ncc3c2CC(C)(C)CC3NS(=O)(=O)c2cn(C)cn2)cc1 (stereo unspecified),,,inactive
COc1ccc(Cn2c(CCC(=O)Nc3ccc(OC)c(Cl)c3)nc3cccnc32)cc1,"inconclusive: 7.08 µM [inhibitor, partial curve]",,
Clc1ccccc1-c1nnc(SCc2nc(-c3ccccc3)no2)n1-c1ccccc1,"inconclusive: 17.8 µM [inhibitor, single point]",,
Cc1cccc(N(CC(=O)N(C)Cc2ccccc2)S(=O)(=O)c2ccccc2)c1C,"inconclusive: 11.2 µM [inhibitor, single point]",,
COc1ncccc1-c1cnc2[nH]cc(CC(=O)NC(C)C)c2c1,"inconclusive: 31.6 µM [inhibitor, single point]",,
CCc1ccc(S(=O)(=O)c2nnn3c2nc(NC(C)C)c2cc(Cl)ccc23)cc1,"inconclusive: 17.8 µM [inhibitor, single point]",,
O=C(Cc1cccc(F)c1)N1CCC(n2cc(-c3nc(C4CC4)no3)nn2)CC1,,inactive: -10.1%,
Cc1ccc(OCC(=O)N2CCC(c3noc(-c4ccccn4)n3)C2)cc1 (stereo unspecified),"inconclusive: 0.282 µM [inhibitor, full curve, poor fit]",,
CN(C)[C@@H]1CN(C(=O)C2(c3ccccc3)CC2)C[C@H]1CO,"inconclusive: 3.16 µM [inhibitor, partial curve, poor fit]",,
COc1ccc(C2C=C(c3ccccc3)Nc3nc(NC(=O)/C=C/c4ccccc4OC)nn32)cc1 (stereo unspecified),active: 10 µM,,
Cc1cccc(OCC(=O)N(Cc2ccc(N(C)C)cc2)Cc2ccco2)c1C,,inactive: -4.15%,
Cc1ccccc1[C@H]1C[C@@H](O)[C@@H](O)[C@@H]1NC(=O)c1c(-c2ccccc2)noc1C,,inactive: -14.4% [at 44.1 µM],
CC(=O)N1CCCC(c2nn(C)c(=O)n2Cc2ccccc2)C1 (stereo unspecified),,,inactive
COc1cc(NC(=O)[C@H]2CCC[C@H]2NC(=O)c2cnc(C)cn2)cc(OC)c1OC,,inactive: -14.1%,
CCOc1ccc(NC(=O)c2c(NCc3cccs3)sc3c2CCCCC3)cc1,"inconclusive: 11.2 µM [inhibitor, single point]",,
COCC1CN(C(C)=O)CC12CCN(Cc1cc(F)c(F)cc1F)CC2 (stereo unspecified),,inactive: -16.9%,
Cc1oc2ncnc(N3CCOCC3)c2c1C(=O)Nc1ccc(Br)cc1F,"inconclusive: 15.8 µM [inhibitor, single point]",,
Fc1ccc(-n2nc(-c3ccccc3)c3cnc4ccccc4c32)cc1Cl,,inconclusive: -74.6% [inhibitor] [at 5.79 µM],
OC(c1ccccc1)c1nc2ccccc2n1Cc1c(F)cccc1Cl (stereo unspecified),"inconclusive: 17.8 µM [inhibitor, single point]",,
Fc1ccc(/C=C/CN2CCC(n3cc(C4CCCC4)nn3)CC2)cc1,,,inactive
